Results are given in words; binding and its absence hold for the method and conditions named. In cells and extracts the contact can be indirect. Some results given as binding are weak or reduced against the parent protein; the word gives no strength. For part of these data: Where a sequence is shown, tags or fusion partners need not be part of it.

Sequences of proteins named here, by UniProt entry; tags and fusion partners are left off. A change or cut given only in a name is not applied to a line headed by its entry.
UniProt Q7Z434: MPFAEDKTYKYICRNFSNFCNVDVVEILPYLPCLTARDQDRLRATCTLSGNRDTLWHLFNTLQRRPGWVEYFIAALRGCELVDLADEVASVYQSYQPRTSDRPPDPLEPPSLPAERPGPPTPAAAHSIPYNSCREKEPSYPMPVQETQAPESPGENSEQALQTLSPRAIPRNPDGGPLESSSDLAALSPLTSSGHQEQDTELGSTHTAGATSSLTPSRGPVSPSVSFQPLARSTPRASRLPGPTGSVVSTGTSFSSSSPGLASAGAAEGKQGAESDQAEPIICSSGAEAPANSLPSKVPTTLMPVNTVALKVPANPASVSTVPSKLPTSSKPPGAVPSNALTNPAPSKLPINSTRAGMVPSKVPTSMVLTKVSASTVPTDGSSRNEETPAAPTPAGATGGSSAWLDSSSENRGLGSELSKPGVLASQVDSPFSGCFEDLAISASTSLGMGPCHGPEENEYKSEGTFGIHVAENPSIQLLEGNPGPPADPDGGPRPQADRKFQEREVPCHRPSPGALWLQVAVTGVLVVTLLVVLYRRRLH
UniProt Q13283: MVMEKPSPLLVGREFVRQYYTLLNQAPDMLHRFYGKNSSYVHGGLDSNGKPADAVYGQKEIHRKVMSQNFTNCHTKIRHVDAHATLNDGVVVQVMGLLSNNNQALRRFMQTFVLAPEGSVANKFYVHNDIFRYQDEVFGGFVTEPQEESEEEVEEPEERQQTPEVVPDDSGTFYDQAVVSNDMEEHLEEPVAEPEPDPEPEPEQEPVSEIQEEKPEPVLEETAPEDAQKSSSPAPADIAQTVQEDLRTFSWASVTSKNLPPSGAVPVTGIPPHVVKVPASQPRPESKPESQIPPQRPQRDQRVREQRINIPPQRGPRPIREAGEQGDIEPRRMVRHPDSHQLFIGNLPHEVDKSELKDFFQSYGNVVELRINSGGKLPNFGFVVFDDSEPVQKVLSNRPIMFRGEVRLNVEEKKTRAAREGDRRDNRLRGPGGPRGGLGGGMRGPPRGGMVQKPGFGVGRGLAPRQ

Test [1] deals with T1, RNF125, endogenous (human (endogenous in HEK293T)) (UniProt Q96EQ8).
T1 sequence: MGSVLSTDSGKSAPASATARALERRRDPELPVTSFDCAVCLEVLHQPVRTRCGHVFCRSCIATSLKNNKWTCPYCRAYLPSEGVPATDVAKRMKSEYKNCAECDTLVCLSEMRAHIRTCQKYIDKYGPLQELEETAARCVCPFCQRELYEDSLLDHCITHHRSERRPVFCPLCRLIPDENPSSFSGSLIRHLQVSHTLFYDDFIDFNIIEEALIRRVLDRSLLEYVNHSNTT
The test is described as follows: co-IP; endogenous proteins; HEK293T cells (5 x 10^7) uninfected or infected with SeV for the indicated time; lysate with antiserum or pre-immune control serum; western blot. (A western blot detects proteins with antibodies after separation by electrophoresis.)

Test [2] concerns the target T2, Retinoic acid-inducible gene I (RIG-I), tagged, transfected (UniProt O95786).
T2 sequence: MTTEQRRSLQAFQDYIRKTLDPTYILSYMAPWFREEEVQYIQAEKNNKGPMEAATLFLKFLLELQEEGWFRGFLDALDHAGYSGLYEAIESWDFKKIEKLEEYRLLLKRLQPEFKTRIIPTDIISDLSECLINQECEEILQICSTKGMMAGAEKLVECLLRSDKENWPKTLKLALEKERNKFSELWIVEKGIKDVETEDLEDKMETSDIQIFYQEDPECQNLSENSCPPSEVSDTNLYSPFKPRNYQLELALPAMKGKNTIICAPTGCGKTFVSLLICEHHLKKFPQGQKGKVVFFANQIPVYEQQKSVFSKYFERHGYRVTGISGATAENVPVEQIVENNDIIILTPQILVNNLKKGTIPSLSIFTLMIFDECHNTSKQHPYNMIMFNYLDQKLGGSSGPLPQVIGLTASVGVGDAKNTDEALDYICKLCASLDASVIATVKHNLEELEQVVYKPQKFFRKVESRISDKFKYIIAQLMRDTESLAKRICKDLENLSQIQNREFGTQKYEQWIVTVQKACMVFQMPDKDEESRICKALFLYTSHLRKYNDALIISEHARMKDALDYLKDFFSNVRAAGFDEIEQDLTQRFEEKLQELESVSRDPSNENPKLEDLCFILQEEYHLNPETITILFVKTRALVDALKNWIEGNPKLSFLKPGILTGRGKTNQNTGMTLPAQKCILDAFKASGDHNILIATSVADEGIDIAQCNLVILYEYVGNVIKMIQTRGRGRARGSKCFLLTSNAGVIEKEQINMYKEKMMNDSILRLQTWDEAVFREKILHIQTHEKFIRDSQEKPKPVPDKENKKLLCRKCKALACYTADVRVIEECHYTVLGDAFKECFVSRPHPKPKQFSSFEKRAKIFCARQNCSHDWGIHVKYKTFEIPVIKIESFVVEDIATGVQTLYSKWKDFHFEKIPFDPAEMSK
Briefly: co-IP; HEK293T cells (2 x 10^6) transfected with the indicated plasmids for 24 h; lysate with monoclonal antibody or control mouse IgG and protein G agarose, 4 °C, 2 h; washed with lysis buffer containing 0.5 M NaCl; western blot.

Test [3] deals with T3, RNF125, tagged, transfected (UniProt Q96EQ8).
T3 sequence: T1 sequence
Described as above.

The next test deals with MAVS, transfected (UniProt Q7Z434). The description is as above.
For the next test, the target named is T4, MDA5, transfected (UniProt Q9BYX4).
T4 sequence: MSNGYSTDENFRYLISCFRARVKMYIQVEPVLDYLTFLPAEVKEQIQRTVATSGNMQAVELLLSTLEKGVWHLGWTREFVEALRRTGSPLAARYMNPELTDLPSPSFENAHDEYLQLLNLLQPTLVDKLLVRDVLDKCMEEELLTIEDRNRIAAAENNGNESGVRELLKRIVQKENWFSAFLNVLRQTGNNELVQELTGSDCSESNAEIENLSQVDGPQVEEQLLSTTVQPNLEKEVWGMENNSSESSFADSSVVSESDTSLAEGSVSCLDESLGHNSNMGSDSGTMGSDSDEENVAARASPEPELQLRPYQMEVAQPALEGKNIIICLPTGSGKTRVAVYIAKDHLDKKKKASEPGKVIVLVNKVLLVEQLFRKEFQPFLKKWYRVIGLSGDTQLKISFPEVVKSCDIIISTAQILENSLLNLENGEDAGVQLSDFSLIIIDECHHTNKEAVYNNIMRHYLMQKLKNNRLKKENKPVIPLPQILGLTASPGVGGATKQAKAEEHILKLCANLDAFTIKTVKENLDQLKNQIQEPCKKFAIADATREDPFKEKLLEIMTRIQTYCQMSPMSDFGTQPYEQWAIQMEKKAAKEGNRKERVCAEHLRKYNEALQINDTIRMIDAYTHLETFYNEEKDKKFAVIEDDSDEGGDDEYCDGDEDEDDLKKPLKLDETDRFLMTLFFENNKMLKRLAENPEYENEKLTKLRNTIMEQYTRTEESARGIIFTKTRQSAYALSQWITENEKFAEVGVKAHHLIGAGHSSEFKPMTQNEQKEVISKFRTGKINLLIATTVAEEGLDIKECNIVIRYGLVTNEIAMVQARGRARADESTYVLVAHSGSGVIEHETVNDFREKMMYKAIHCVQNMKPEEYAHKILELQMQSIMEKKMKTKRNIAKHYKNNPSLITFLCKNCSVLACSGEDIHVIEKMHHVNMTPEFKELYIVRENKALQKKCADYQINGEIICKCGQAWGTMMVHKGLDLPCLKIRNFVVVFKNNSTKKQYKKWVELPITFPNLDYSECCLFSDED
The description is as above.

As to “G3BP1, endogenous (from UniProt Q13283 1-466)”, the binding entry in test [1] is reported as “binds”.
For the substance “G3BP1 NTF2 (from UniProt Q13283 11-133) (domain or fragment)”, the binding entry in test [2] and in test [3] was “no binding” throughout.
Take “G3BP1 (E285A) mutant (from UniProt Q13283 1-466)”: the binding entry in test [2] was “binds”.
For the substance “Ras-GTPase-activating protein SH3-domain-binding protein 1 (G3BP1), tagged, transfected (from UniProt Q13283 1-466)”, the binding entry is listed as “no binding” with MAVS, transfected; “no binding” with MDA5, transfected; “binds” in test [3].
Turning to “G3BP1 RRM (from UniProt Q13283 340-415) (domain or fragment)”, the binding result in test [2] and in test [3] was “no binding” each time.

For the origin of these results see PMC6906297.
